Experimental data taken from PubChem BioAssay AID1240 (Sanford-Burnham Center for Chemical Genomics, 2008).
The campaign covered roughly 50,000 compounds. About 800 (1.6%) showed an effect of 50% or more. The list shows a part of the results.

molecular target: Bcl-2-like protein 10 (Homo sapiens) (UniProt Q9HD36); assay: TR3 peptide-Bcl-B binding displacers, biochemical primary FP assay, phenotype converters (AID 1240); details: GST-Bcl-B / FITC-TR3 peptide fluorescence polarization; stronger effect = higher value; compound at 3.75 mg/L;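 also: 0% = Bcl-B with tracer peptide and DMSO and 100% = tracer peptide lacking Bcl-B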
Sequence of UniProt Q9HD36 (Q9HD36 whole entry, looked up): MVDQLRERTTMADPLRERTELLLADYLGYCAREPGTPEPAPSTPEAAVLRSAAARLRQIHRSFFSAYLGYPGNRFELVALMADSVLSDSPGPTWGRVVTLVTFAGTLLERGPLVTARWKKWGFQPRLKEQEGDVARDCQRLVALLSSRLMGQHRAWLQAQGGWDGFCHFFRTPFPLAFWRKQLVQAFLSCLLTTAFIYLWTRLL

| Compound | displacement [%] |
| --- | --- |
| CCOC(=O)C1=C(O)CSC1=Nc1ccc(C)cc1 | -15.6 |
| CCC(Oc1ccccc1)C(=O)N1CCN(C(c2ccccc2)c2ccccc2)CC1 (configuration not stated) | -9.6 |
| Cc1nnc(Sc2nc(Sc3nnc(C)s3)nc(N3CCN(C)CC3)n2)s1 | 9.7 |
| COC(=O)C1=C(C)N(C)C(C)=C(C(=O)OC)C1c1ccc(C)s1 | 0.5 |
| CS(=O)(=O)N(Cc1ccccc1)c1ccccc1C(=O)Nc1cccc(C(F)(F)F)c1 | -2.9 |
| OC(CNCc1ccccc1)(c1ccc(Cl)cc1)c1ccc(Br)cc1 (configuration not stated) | -6.7 |
| COc1ccc(Cl)cc1C(=O)NCCN1CCOCC1 | -0.2 |
| CCOc1ccc(S(=O)(=O)N(CC(=O)NC)c2ccc(C)cc2)cc1 | 1.7 |
| Cn1cnc2cc(NCc3ccc(Cl)cc3)ccc21 | 5.2 |
| C#CCOc1ccc(/C=C2\C(=O)NC(=O)N(c3cc(C)cc(C)c3)C2=O)cc1OCC | -36.6 |
| CC12CC3CC(C)(C1)CC(C(=O)Nc1ccc([N+](=O)[O-])cc1)(C3)C2 | 6.6 |
| CCN1C(=O)/C(=C\c2cccc(OCc3cccc4ccccc34)c2)SC1=S | 4.6 |
| NC(=O)c1cc(NS(=O)(=O)c2ccc(F)cc2)ccc1Cl | -1.2 |
| COc1ccccc1/C=N/Nc1cc(-c2ccccc2)nc(C)n1 | -9.7 |
| C=CCSc1nc2ccccc2n1C(=O)c1ccc2c(c1)OCO2 | -11 |
| O=C1C(=O)N(CCO)C(c2cccc(F)c2)/C1=C(\O)c1ccccc1 (configuration not stated) | 1.7 |

| Compound | displacement [%] |
| --- | --- |
| O=C1C2C(C(=O)N1/N=C/C=C/c1ccccc1)C1C=CC2C12CC2 (configuration not stated) | 8.4 |
| O=C(Nc1ccc(F)cc1)c1ccc(Br)c(S(=O)(=O)N2CCOCC2)c1 | -14.3 |
| CC1(C)SCC2C(=O)N3C(CSC3(C)C)C(=O)N21 (configuration not stated) | -0.3 |
| CCc1nnc(NC(=O)C2CCCC2)s1 | -7.8 |
| Cc1ccc(NC(=O)COc2ccc3ccccc3c2)cc1 | 1.7 |
| O=C(Nc1ccccn1)c1cc2cc(Br)ccc2oc1=O | 13.6 |
| Cc1cccc(-n2c(C)cc(C=O)c2C)c1 | 11.9 |
| Cc1cc(C(F)(F)F)c(C#N)c(SCC(N)=O)n1 | -2.9 |
| Cc1ccc(-c2nnc(NC(=O)Nc3ccc(Cl)cc3)s2)cc1 | 0.6 |
| COC(=O)c1ccc(/C=C2\SC(=S)N(NC(=O)c3ccccc3C)C2=O)cc1 | -5.8 |
| COc1cc(C(=O)N2CCN(C3CC4CCC3C4)CC2)cc(OC)c1OC (configuration not stated) | 8.1 |
| COc1cc(/C=N/Nc2nnc(C)c(=O)[nH]2)ccc1O | 6.5 |
| O=S(=O)(c1ccc2c(c1)OCCO2)N1CCCCCC1 | 6.3 |
| COc1cccc(/C=C2/C(=O)NN(c3ccc(C)cc3)C2=O)c1O | 21.3 |
| COc1ccc(NC(=O)c2ccc(Br)o2)cc1Cl | 17.1 |
| CCn1c2ccccc2c2cc(NC(=O)CC(C)=O)ccc21 | -0.3 |
